# Laboratory results: publication PMC4336329 (PLoS ONE, 2015)
# Hit rate of the full screen: of about 310,000 compounds, about 2,200 (0.71%) showed an effect of 50% or more. Effects have a minus sign here. This is one part of the list.
# Biological target: human ether-à-go-go-related gene (hERG) potassium channel (human, UniProt Q12809)
# Test: primary screen, population patch clamp on CHO cells stably expressing hERG
# Sequence of human ether-à-go-go-related gene (hERG) potassium channel (Q12809 whole entry, looked up): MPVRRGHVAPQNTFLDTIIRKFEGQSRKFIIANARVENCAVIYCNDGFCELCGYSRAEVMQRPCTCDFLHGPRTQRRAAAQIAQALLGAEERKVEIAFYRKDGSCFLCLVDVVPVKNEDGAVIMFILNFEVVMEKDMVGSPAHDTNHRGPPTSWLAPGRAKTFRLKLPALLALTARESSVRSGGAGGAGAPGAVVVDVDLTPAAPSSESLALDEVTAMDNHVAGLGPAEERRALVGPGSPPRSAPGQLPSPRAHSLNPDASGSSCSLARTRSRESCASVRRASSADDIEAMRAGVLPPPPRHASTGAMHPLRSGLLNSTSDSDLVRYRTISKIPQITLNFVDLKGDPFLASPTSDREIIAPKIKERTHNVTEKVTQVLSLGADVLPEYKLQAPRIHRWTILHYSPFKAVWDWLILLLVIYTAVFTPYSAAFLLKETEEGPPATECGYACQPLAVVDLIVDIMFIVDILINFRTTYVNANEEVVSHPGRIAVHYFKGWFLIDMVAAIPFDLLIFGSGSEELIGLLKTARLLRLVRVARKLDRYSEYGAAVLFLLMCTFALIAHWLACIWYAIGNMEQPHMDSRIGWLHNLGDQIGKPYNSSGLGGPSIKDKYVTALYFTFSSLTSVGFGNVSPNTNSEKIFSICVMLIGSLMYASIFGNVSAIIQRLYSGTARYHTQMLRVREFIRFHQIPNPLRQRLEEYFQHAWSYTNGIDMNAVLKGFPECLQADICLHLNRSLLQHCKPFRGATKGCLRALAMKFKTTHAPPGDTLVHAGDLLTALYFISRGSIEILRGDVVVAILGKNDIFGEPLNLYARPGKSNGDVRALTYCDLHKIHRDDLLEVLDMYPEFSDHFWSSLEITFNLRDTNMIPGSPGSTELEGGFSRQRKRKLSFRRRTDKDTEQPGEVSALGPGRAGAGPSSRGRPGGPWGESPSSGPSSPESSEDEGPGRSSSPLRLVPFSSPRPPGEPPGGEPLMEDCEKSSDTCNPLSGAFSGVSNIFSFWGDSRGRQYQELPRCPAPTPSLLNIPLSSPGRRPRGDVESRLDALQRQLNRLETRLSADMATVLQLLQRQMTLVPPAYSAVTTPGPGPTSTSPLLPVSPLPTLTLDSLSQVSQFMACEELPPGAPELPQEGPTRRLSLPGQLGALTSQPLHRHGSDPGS
row,Compound,"hERG current change (%, negative = inhibition) at 1uM"
1,O=C(OCc1c(F)cccc1Cl)c1cc([N+](=O)[O-])ccc1N1CCOCC1,10.8%
2,CCCCCC(=O)N1CCN(S(=O)(=O)c2ccc3c(c2)OCCCO3)CC1,8.75%
3,COc1ccc(S(=O)(=O)/C(C#N)=C/Nc2ccccc2F)cc1,2.97%
4,COc1cc(OC)c(-n2cc(-c3ccc(Cl)cc3)[nH]c2=O)cc1Cl,11.4%
5,CC(=O)c1cccc(NC(=O)C2CCN(C(=O)c3cccs3)CC2)c1,5.97%
6,CCOc1ccc2nc(Cl)c(C3CC(c4ccco4)=NN3S(C)(=O)=O)cc2c1 (centres unmarked),-10.5%
7,CCC1CCCCN1C(=O)CSC1=NN2CCCC(=O)N=C2S1 (centres unmarked),15.5%
8,Cc1nnc(SCCn2c(N3CCC(C)CC3)nc3c2c(=O)n(C)c(=O)n3C)s1,2.17%
9,CC1=C(C#N)C(NC(=O)c2ccccc2Cl)(C(F)(F)F)C(=O)N1 (centres unmarked),2.66%
10,CC(C)C1Cc2c(sc3ncnc(NN)c23)CO1 (centres unmarked),13.4%
11,O=c1cc[nH]c2cc(Cl)ccc12,10.5%
12,COc1ccc(/C=C/C(=O)c2ccc(Cl)s2)cc1O,7.3%
13,CCCn1cc(S(=O)(=O)c2ccccc2)c(=O)c2cc(OCC)ccc21,-0.252%
14,COc1ccc(NC(=O)C2CCCN(S(C)(=O)=O)C2)cc1OC (centres unmarked),15.2%
15,CCOC(=O)C(CCSC)Nc1nc(Cl)nc(Nc2ccc(Cl)cc2)n1 (centres unmarked),14.3%
16,O=CNCCCc1nc2ccccc2n1Cc1ccccc1,-3.02%
17,COc1ccc(NC(=O)CS(=O)c2ccccc2Cl)cc1 (centres unmarked),8.8%
18,CC(C)(CNC(=O)c1cc2ccccc2o1)N1CCOCC1,9.16%
19,CC(C)c1ccccc1NC(=O)c1ccco1,-10.2%
20,CC(=O)c1cccc(NC(=O)C2=CC(c3cccs3)=NS(=O)(=O)N2C)c1,12.7%
21,CC(C)(C)Sc1ccc([N+](=O)[O-])cc1C(=O)Nc1ccncc1,0.86%
22,O=C(OCC(=O)N1CCc2ccccc21)c1ccccc1,10.7%
23,Cc1ccc(CC(=O)Nc2nc3ccccc3s2)cc1,8.93%

row,Compound,"hERG current change (%, negative = inhibition) at 1uM"
1,O=C(COc1ccc(Br)cc1)NNC(=S)NC(=O)c1ccccc1[N+](=O)[O-],8.88%
2,CC(C)(C)c1ccc(Cn2nnc3c(=O)[nH]c(C4CCN(C(=O)Cc5cccs5)CC4)nc32)cc1,8.56%
3,CC1(C)CC(NC(=O)c2ccc(Br)o2)CC(C)(C)N1,14.5%
4,CC(=O)N(C)c1ccc(NC(=S)NC(=O)/C=C/c2ccco2)cc1,11.8%
5,CC(C)(C)C(=O)/C(=C\c1ccc([N+](=O)[O-])cc1)n1cncn1,-6.21%
6,O=C(COC(=O)c1cccnc1Cl)NCc1ccc2c(c1)OCO2,10.4%
7,CCn1c(SCC(=O)Nc2cccc(NC(=O)c3cccs3)c2)nnc1-c1ccncc1,2.12%
8,O=C(CCCCn1c(=O)[nH]c2ccsc2c1=O)NCCc1ccccc1,9.26%
9,O=C1CSC(=S)N1c1cccc(Br)c1,13%
10,Nc1c(C(=O)N/N=C/c2cccnc2)oc2nc(-c3ccco3)cc(-c3ccco3)c12,14.6%
11,Cc1ccc(-c2nc(C#N)c(NCCc3ccccn3)o2)cc1,-0.178%
12,CC(NC(=O)C(C)N1CCN(S(=O)(=O)c2ccccc2)CC1)c1ccccc1 (centres unmarked),1.94%
13,COc1ccc(-c2ccc(SCC(=O)Nc3nccs3)nn2)cc1OC,18.9%
14,CCOc1ccc(N2CC(C(=O)Nc3ccccn3)CC2=O)cc1 (centres unmarked),-5.75%
15,COc1ccc(-c2noc(CCCOc3ccc(Cl)cc3Cl)n2)cc1,13.7%
16,COc1ccc2c(c1)c(C(=O)O)c(C)n2CCc1ccc(OC)c(OC)c1,14.2%
17,COc1cccc(-n2nc(C(=O)O)c3ccccc3c2=O)c1,7.5%
18,Cc1sc2c(c1C)c(=O)nc1scc(CC(=O)O)n12,11.5%
19,COc1ccc(OCc2nnc(SCC(=O)Nc3nnc(C4CC4)s3)n2C)cc1,14.2%
20,Cc1c(Cl)cccc1NC(=S)N/N=C/c1ccccc1Cl,11.8%
21,COc1cccc(OC)c1OCCCN1CCC(Cc2ccccc2)CC1.O=C(O)C(=O)O,-79.3%
22,COc1ccc(NC(=O)NCCCN2CCN(c3ccccc3F)CC2)cc1,-5%
23,CCc1cccc(NS(=O)(=O)c2ccc3c(c2)N(C)CCO3)c1,11%

row,Compound,"hERG current change (%, negative = inhibition) at 1uM"
1,CN(C1CCCCC1)S(=O)(=O)c1ccccc1,1.76%
2,CCN(CC)C(=O)CSc1nnc(-c2ccccc2)c(-c2ccccc2)n1,3%
3,CCN1C(=O)[C@H]2[C@@H](c3ccc(-c4ccc(F)cc4)cc3)N[C@@](Cc3ccccc3)(C(=O)OC)[C@H]2C1=O.O=C(O)C(F)(F)F,3.85%
4,CCn1c(-c2cccnc2)n[nH]c1=S,13.3%
5,Fc1ccc(CN2CCCCCCC2)cc1F,-15.2%
6,O=C(CN1CCN(c2ccccn2)CC1)Nc1ccc(Br)cc1,-22.6%
7,CCOc1ncccc1C(=O)N(C)CC(=O)Nc1ccc(F)cc1,19.3%
8,O=C(CN1C(=O)/C(=C/c2ccccc2)SC1=S)Nc1cccnc1,9.4%
9,CC(C)NC(=O)COC(=O)c1ccc(Cl)c(S(N)(=O)=O)c1,14.3%
10,CCN(CC)C(=O)CSc1nc2ccccc2c(=O)n1OC(C)C,-7.43%
11,Cc1cc(C)cc(OCc2ccc(C(=O)NC3CCOC3=O)o2)c1 (centres unmarked),6.57%
12,N#Cc1c(N)sc2c1CCN(CCc1ccccc1)C2,-21.5%
13,O=C(O)[C@H](Cc1ccccc1)NC(=O)N1CCN(c2ccccc2)CC1,9.13%
14,CC1CCN(S(=O)(=O)c2ccc(C(=O)Nc3nnc(-c4ccco4)o3)cc2)CC1,5.06%
15,CN(NS(=O)(=O)c1ccc(Cl)cc1)c1nc(C(F)(F)F)nc2ccccc12,13.9%
16,Cc1nc2ccccc2nc1N/N=C/c1ccc(O)cc1,4.88%
17,C=CCO/N=C(/CCC)C1=C(N)CC(C)(C)CC1=O,15%
18,CN(c1ccc(OCC(=O)Nc2nc(-c3ccccc3)cs2)cc1)S(=O)(=O)c1ccc(F)cc1,3.5%
19,COc1cccc(OC)c1NC(=O)c1nc2c(nnn2Cc2ccccc2Cl)c(=O)[nH]1,5.65%
20,CCOC(=O)c1cnc2ncnn2c1N,10.8%
21,O=C(NCCN1C(=O)C2C3C=CC(C3)C2C1=O)Nc1ccc(Br)cc1 (centres unmarked),-1.45%
22,O=C(/C=C/c1cccc(F)c1)NNC(=O)c1ccncc1,5.6%
23,N#Cc1ccccc1Sc1ccccc1C(=O)Nc1ccc2ccccc2c1,13.9%

row,Compound,"hERG current change (%, negative = inhibition) at 1uM"
1,COCCNC(=O)c1ccc(CS(=O)(=O)c2ccccc2)o1,-2.09%
2,CCC(C)c1ccc(OCC(=O)Nc2cccc(C(=O)Nc3ccc(C(=O)O)cc3)c2)cc1 (centres unmarked),2.39%
3,CCOC(=O)C1=C(N)n2c(s/c(=C\c3ccncc3)c2=O)=C(C(=O)OCC)C1c1ccncc1 (centres unmarked),23%
4,Nc1c(C(=O)Nc2ccc3c(c2)OCCO3)nnn1Cc1ccc(Br)cc1,3.21%
5,CCC(C)NC(=O)c1ccc(C2SCC(=O)N2Cc2ccccc2)cc1 (centres unmarked),10.5%
6,Cc1nn(Cc2ccc(F)cc2)c(C)c1NC(=O)c1nn(C)cc1Cl,-21.4%
7,COc1cc(CN(C)CC2CCCN(CCc3cccc(C(F)(F)F)c3)C2)ccc1O (centres unmarked),2.96%
8,CC(=O)Nc1ccc(NC(=O)CCn2cnnn2)cc1,12.5%
9,Cc1cc(C(=O)NCCc2ccc(S(N)(=O)=O)cc2)c(C)o1,11.6%
10,CN1C(=O)CC(N2CCN(CC(=O)N3CCCC3)CC2)C1=O (centres unmarked),3.59%
11,COc1ccc(C(C)=O)cc1CSc1nnc(SCc2cc(C(C)=O)ccc2OC)s1,14.1%
12,CC1CC(C)CN(c2ncnc3c2cnn3-c2ccc(Cl)cc2)C1 (centres unmarked),4.48%
13,COc1cccc(CN2CC(C(=O)NCCc3ccc(C)o3)CCC2=O)c1 (centres unmarked),6.56%
14,C=CCN1C(=O)/C(=C/c2cccs2)S/C1=N\S(=O)(=O)c1ccc(F)cc1,9.5%
15,Cc1cc(=O)oc2ccc(OC(=O)CN3C(=O)c4cccc([N+](=O)[O-])c4C3=O)cc12,4.36%
16,O=C(O)CCCc1ccc2c(c1)CCc1ccccc1-2,11.3%
17,Cc1nnc(SCc2cc(=O)[nH]c(Nc3nc(C)c4cc(C)c(C)cc4n3)n2)s1,9.77%
18,CCOC(=O)c1c(NC(=O)CCN2C(=O)c3cccc([N+](=O)[O-])c3C2=O)sc(C(=O)OC(C)C)c1C,10.2%
19,O=C(Nc1ccc([N+](=O)[O-])cc1)c1ccc(Cn2cc([N+](=O)[O-])cn2)cc1,9.06%
20,Cc1cc2c(c(N)n1)c(=O)oc1ccccc12,11.4%
